{"source": "paper PMC6919601", "about": "“Identification of Plasmodium dipeptidyl aminopeptidase allosteric inhibitors by high throughput screening” (PLoS ONE, 2019)", "note": "The whole screen tested about 110,000 compounds, of which about 230 (0.21%) showed an effect of 50% or more. This is one part of the list.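 Also: 30 min substrate incubation versus DMSO and 10 µM JCP410 controls.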", "data": [{"biological_target": "DPAP1 (Plasmodium falciparum, UniProt Q8IIJ9)", "sequence (Q8IIJ9 whole entry, looked up)": "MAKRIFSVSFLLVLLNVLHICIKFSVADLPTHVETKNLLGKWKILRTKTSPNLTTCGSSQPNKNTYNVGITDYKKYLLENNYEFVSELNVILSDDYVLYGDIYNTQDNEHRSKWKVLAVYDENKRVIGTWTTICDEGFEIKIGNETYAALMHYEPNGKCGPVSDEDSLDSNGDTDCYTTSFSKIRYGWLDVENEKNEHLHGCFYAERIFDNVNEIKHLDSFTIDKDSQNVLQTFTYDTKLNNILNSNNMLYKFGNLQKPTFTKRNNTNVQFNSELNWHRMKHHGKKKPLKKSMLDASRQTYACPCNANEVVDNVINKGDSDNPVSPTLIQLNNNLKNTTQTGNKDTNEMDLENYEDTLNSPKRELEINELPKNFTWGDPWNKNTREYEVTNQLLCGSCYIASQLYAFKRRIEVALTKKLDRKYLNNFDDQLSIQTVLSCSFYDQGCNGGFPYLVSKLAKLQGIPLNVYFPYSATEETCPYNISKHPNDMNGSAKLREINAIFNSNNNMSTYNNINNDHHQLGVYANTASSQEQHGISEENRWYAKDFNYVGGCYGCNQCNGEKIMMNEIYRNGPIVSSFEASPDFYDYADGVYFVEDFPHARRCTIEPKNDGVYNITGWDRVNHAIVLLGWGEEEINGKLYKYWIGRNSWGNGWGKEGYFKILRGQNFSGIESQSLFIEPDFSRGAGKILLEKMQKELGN", "assay": "primary screen, percent inhibition; read by cleavage of a fluorogenic dipeptide substrate; higher = more effect of the substance", "set-up": "species or system P. falciparum D10 trophozoite lysates; single well", "units": {"% Inhibition @ 10 uM": "%"}, "values": [{"smiles": "CCc1nnc2sc(-c3ccc(F)cc3)nn12", "% Inhibition @ 10 uM": -4.67}, {"smiles": "COc1ccc(/N=C2/CCCN2C(=O)c2ccc(F)cc2)cc1", "% Inhibition @ 10 uM": -2.77}, {"smiles": "Cc1ccc2c(c1)c1c3n2CCN(CC(O)COc2ccccc2C)C3CCC1", "note": "(stereo not shown)", "% Inhibition @ 10 uM": -1.75}, {"smiles": "O=C(O)c1cccc(NC(=O)c2ccc3c(c2)C(=O)N(Cc2ccco2)C3=O)c1", "% Inhibition @ 10 uM": 14.5}, {"smiles": "C1CCCC(N2CCC(N3CCCCC3)CC2)CC1", "% Inhibition @ 10 uM": -3.57}, {"smiles": "CC(C)Cn1c(=O)c2c(nc3n2CCS3)n(C)c1=O", "% Inhibition @ 10 uM": 2.41}, {"smiles": "O=C(/C=C/C1=NN(c2ccccc2)C(c2ccccc2)C1)c1ccc(-c2ccccc2)cc1", "note": "(stereo not shown)", "% Inhibition @ 10 uM": -1.54}, {"smiles": "COc1cc(C(=O)/N=c2\\sc(C)c(-c3ccccc3)n2C)cc(OC)c1OC", "% Inhibition @ 10 uM": -2.32}, {"smiles": "CCOc1ccc(NS(=O)(=O)c2ccc(NC(=O)C(F)(F)F)cc2)cc1", "% Inhibition @ 10 uM": -1.61}, {"smiles": "Cc1ccc(CN(C(=O)C(C)Oc2ccc(Cl)c(C)c2)C2CCS(=O)(=O)C2)o1", "note": "(stereo not shown)", "% Inhibition @ 10 uM": -1.11}, {"smiles": "CN(C)c1ccc(/C=C/CN2CCC(O)CC2)cc1", "% Inhibition @ 10 uM": -3.42}, {"smiles": "O=C(NCc1ccc2c(c1)OCO2)c1sc2ccccc2c1Cl", "% Inhibition @ 10 uM": -7.3}, {"smiles": "CC(CNC(=O)C1CCCN(S(=O)(=O)N2CCOCC2)C1)c1ccccc1", "note": "(stereo not shown)", "% Inhibition @ 10 uM": 2.81}, {"smiles": "COc1cccc2sc(N(CCCN(C)C)C(=O)COc3ccccc3)nc12", "% Inhibition @ 10 uM": 5.38}, {"smiles": "O=C(CCCN1C(=O)c2ccccc2Sc2ncccc21)NCc1ccccn1", "% Inhibition @ 10 uM": -6.65}, {"smiles": "COc1cc(CN2C[C@@H]3C[C@H](C2)c2cccc(=O)n2C3)cc2c1OCO2", "% Inhibition @ 10 uM": -5.48}, {"smiles": "CCC(C)NC(=O)C1CC(=O)N(c2ccc(C(C)C)cc2)C1", "note": "(stereo not shown)", "% Inhibition @ 10 uM": -7.58}, {"smiles": "CCCn1c2ccccc2n2c(C(=O)OC)c(C)nc12", "% Inhibition @ 10 uM": 0.132}, {"smiles": "Cc1cc(C)c(NC(=O)c2c(Cl)c(C)nn2C)c(C)c1", "% Inhibition @ 10 uM": 0.777}, {"smiles": "Cc1ccc(C(=O)O)c(C(=O)Nc2cccnc2)c1", "% Inhibition @ 10 uM": 2.25}, {"smiles": "COc1cc(N)c2nc(OCc3ccc(Br)cc3)ccc2c1", "% Inhibition @ 10 uM": 0.528}, {"smiles": "O=c1c2c(nc3n1CCOC3)sc1c(O)c(Br)ccc12", "% Inhibition @ 10 uM": -5.35}, {"smiles": "O=C(NCc1cccc(C(F)(F)F)c1)c1nc(-c2ccc(-n3cccc3)cc2)no1", "% Inhibition @ 10 uM": -1.85}, {"smiles": "N#C/C(=C/c1ccccc1)c1nc(-c2cccs2)cs1", "% Inhibition @ 10 uM": -4.24}, {"smiles": "COc1ccccc1OCCn1c(S)nc2ccccc21", "% Inhibition @ 10 uM": -1.46}, {"smiles": "Cc1oc(-c2ccc(C(=O)NCCc3ccc(Cl)cc3)cc2)nc1CS(=O)(=O)c1ccccc1", "% Inhibition @ 10 uM": -3.31}, {"smiles": "CC(C)CNC(=O)c1ccccc1NC(=O)c1ccc(C2SCC(=O)N2Cc2ccccc2)cc1", "note": "(stereo not shown)", "% Inhibition @ 10 uM": 0.635}, {"smiles": "CCN(CC)C(=O)C1CCCN(Cc2cc(Br)c(O)c(OC)c2)C1", "note": "(stereo not shown)", "% Inhibition @ 10 uM": 2.33}, {"smiles": "COc1ccc(Cc2nnn(CC(=O)O)n2)cc1", "% Inhibition @ 10 uM": 1.52}, {"smiles": "O=C1c2[nH]nc(-c3ccccc3O)c2C(c2ccc(OCc3ccccc3)cc2)N1CCCO", "note": "(stereo not shown)", "% Inhibition @ 10 uM": 0.366}, {"smiles": "COc1ccccc1CC(C)NCc1ccc(C(F)(F)F)cc1", "note": "(stereo not shown)", "% Inhibition @ 10 uM": 1.26}, {"smiles": "CSc1ncc(Cl)c(C(=O)N(Cc2ccccc2)Cc2ccco2)n1", "% Inhibition @ 10 uM": -2.85}, {"smiles": "CCCCN(Cc1ccccc1)Cc1cccnc1", "% Inhibition @ 10 uM": 1.74}, {"smiles": "O=C(Nc1ccc(-c2ccccc2)cc1)c1ccco1", "% Inhibition @ 10 uM": -0.128}, {"smiles": "CCOc1c(Cl)cc(C2C3=C(O)CC(C)(C)CC3=NC3=C2C(=O)CC(C)(C)C3)cc1OC", "note": "(stereo not shown)", "% Inhibition @ 10 uM": -2.68}, {"smiles": "CCC(C)S(=O)(=O)c1oc(-c2cccs2)nc1S(=O)(=O)c1ccc(C)cc1", "note": "(stereo not shown)", "% Inhibition @ 10 uM": -1.22}, {"smiles": "COc1cc(C=C2C(=O)N(C)C(=O)N(C)C2=O)cc(OC)c1O", "% Inhibition @ 10 uM": 13.2}, {"smiles": "CC(CCc1ccco1)NC(=O)c1cccc2c1C(=O)N(C1CCCCC1)C2", "note": "(stereo not shown)", "% Inhibition @ 10 uM": -0.499}, {"smiles": "Cc1cc(CO)c(O)c(CCc2ccccc2)n1", "% Inhibition @ 10 uM": -5.5}, {"smiles": "COc1ccccc1CN1CCN(Cc2cccc(Br)c2)CC1", "% Inhibition @ 10 uM": -3.49}, {"smiles": "CS(=O)(=O)C1=NN2C(=N)/C(=C\\c3ccc(-c4ccc(Br)cc4)o3)C(=O)N=C2S1", "% Inhibition @ 10 uM": -7.16}, {"smiles": "O=C(CCC1CCCCC1)N[C@@H](CCc1ccccc1)C(=O)c1nc2cc(C(F)(F)F)ccc2o1", "% Inhibition @ 10 uM": 1.35}, {"smiles": "COc1cc(/C=C2/NC(=O)N(Cc3ccc(F)cc3)C2=O)cc(OC)c1OC", "% Inhibition @ 10 uM": -6.05}, {"smiles": "COc1cc2cccc(O)c(=O)c2c(O)c1OC", "% Inhibition @ 10 uM": -7.75}, {"smiles": "CCN1/C(=C/C2=CC(=O)CC(C)(C)C2)Sc2ccccc21", "% Inhibition @ 10 uM": 5.77}, {"smiles": "COc1ccc(CCn2c(SCC(=O)Nc3cc(C)[nH]n3)nc3nccnc3c2=O)cc1OC", "% Inhibition @ 10 uM": -3.73}, {"smiles": "CCN1C(=O)C(O)(CC(=O)c2ccc(OC)cc2)c2ccccc21", "note": "(stereo not shown)", "% Inhibition @ 10 uM": -0.992}, {"smiles": "CCCc1nc(SC)ncc1C(=O)NCCCN1CCCCC1C", "note": "(stereo not shown)", "% Inhibition @ 10 uM": 0.442}, {"smiles": "C=CCNc1oc(COc2ccc(Br)cc2)nc1C#N", "% Inhibition @ 10 uM": 1.43}, {"smiles": "CC(CN1CCN(CCO)CC1)c1ccccc1", "note": "(stereo not shown)", "% Inhibition @ 10 uM": 2.1}, {"smiles": "O=C(c1ccc(-c2ccccc2F)o1)N1CCOCC1", "% Inhibition @ 10 uM": -4.11}, {"smiles": "COC(=O)c1cc(S(=O)(=O)N2CCCCC2)ccc1Cl", "% Inhibition @ 10 uM": 0.247}, {"smiles": "Clc1cccc(N2CCN(CC(c3ccccc3)c3ccccc3)CC2)c1", "% Inhibition @ 10 uM": -2.21}, {"smiles": "O=C(NC1CCCc2ccccc21)C(Cc1ccccc1)NS(=O)(=O)c1cccc2nsnc12", "note": "(stereo not shown)", "% Inhibition @ 10 uM": -1.43}, {"smiles": "COc1ccccc1OCCCn1cc(C(=O)c2ccco2)c2ccccc21", "% Inhibition @ 10 uM": -1.33}, {"smiles": "C=CCOC(=O)C1=C(C)N=C(C)/C(=C(/O)OCC=C)C1c1ccccc1F", "note": "(stereo not shown)", "% Inhibition @ 10 uM": -5.63}, {"smiles": "OC1CCCN(C2CCC(c3ccccc3)CC2)C1", "note": "(stereo not shown)", "% Inhibition @ 10 uM": -2.03}, {"smiles": "CSc1nc2n(n1)C(c1ccc(C)cc1)C1=C(O)CCCC1=N2", "note": "(stereo not shown)", "% Inhibition @ 10 uM": -3.45}, {"smiles": "CCCn1c(SCc2ccc(C)cc2)nc2c1c(=O)[nH]c(=O)n2C", "% Inhibition @ 10 uM": 3.65}, {"smiles": "O=C(NCC1COc2ccccc2O1)c1cnn2c(C(F)(F)F)cc(-c3cccs3)nc12", "note": "(stereo not shown)", "% Inhibition @ 10 uM": -6.16}, {"smiles": "CCNc1oc(COc2ccccc2C)nc1C#N", "% Inhibition @ 10 uM": 5.18}, {"smiles": "c1ccc(CCc2c[nH]c3ccccc23)nc1", "% Inhibition @ 10 uM": 2.7}, {"smiles": "COc1ccc(C)cc1NC(=O)C(OC)c1ccccc1", "note": "(stereo not shown)", "% Inhibition @ 10 uM": 5.31}, {"smiles": "COc1ccc(/C=C/C(O)=C2/C(=O)NC34CCCC3C2c2ccccc2O4)c(OC)c1OC", "note": "(stereo not shown)", "% Inhibition @ 10 uM": 9.42}]}]}
